In PubChem BioAssay AID1347055 (National Center for Advancing Translational Sciences (NCATS), 2019):
Out of some 54,000 compounds screened, about 120 (0.22%) were called active. This list was built around the results that the source calls inconclusive (neither active nor inactive); the mix of calls is not that of the screen. The call rests on the fitted dose curve; in most records, active means well fitted inhibition curve with a large enough effect; inconclusive means small, poorly fitted or top-dose-only effect, or effect the other way; inactive means flat fitted curve, though single readings scatter. Potencies of inconclusive entries are left out as doubtful fits.

target: Fumarate hydratase, mitochondrial (Homo sapiens) (UniProt P07954); test: Identification of activators of human fumarate hydratase by quantitative high-throughput screening; conditions: FH coupled MDH/diaphorase resazurin fluorescence, 15 min; series mostly up to 79.9 µM; further: the screen sought activators but most active calls are inhibition curves; nearly all actives have a fitted effect of over 45% in size
UniProt P07954, sequence (P07954 whole entry, looked up): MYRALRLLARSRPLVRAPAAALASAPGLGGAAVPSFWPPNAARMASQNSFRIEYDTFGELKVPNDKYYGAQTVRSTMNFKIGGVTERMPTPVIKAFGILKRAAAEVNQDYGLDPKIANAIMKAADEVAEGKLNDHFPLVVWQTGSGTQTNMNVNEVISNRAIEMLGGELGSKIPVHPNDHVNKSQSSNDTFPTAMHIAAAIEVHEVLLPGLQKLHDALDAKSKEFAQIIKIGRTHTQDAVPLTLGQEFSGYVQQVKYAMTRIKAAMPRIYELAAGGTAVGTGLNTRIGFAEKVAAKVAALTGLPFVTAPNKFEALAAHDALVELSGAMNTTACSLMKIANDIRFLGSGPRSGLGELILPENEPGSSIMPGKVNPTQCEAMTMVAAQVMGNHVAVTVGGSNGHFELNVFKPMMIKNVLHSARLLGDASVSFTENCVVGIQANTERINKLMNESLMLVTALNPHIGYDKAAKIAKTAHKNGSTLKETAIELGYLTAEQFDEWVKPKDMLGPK
Potency means the concentration at half of the fitted maximal effect; tags describe the fitted curve by direction and shape.

**Q.** With `Cc1ccc(NC(=O)C2CCN(C(=O)c3cnn(-c4ccccc4)c3-n3cccc3)CC2)cc1Cl` as the compound, how does the Potency read?
**A.** inconclusive [inhibitor, partial curve, poor fit]

**Q.** For `Cc1ccc(Nc2nc(C(N)=O)c(NC(=O)c3ccccc3Br)s2)cc1`, which Potency is on record?
**A.** inactive

**Q.** Which Potency does the source give for `CN1CCN(C(=O)c2ccc3cc(CCNc4ncnc5ccc(C#N)cc45)ccc3c2)CC1` here?
**A.** inactive

**Q.** With `COC(=O)c1c(SCC(=O)Nc2ccccc2C(F)(F)F)[nH]c2ccc(Cl)cc2c1=O` as the compound, how does the Potency read?
**A.** inconclusive [inhibitor, single point]

**Q.** How did the Potency turn out when `CCOC(=O)c1ccc(O)cc1` was run?
**A.** inactive

**Q.** With `CCOC(=O)c1ccc(N2C(=O)c3n[nH]c(-c4cccs4)c3C2c2cccc(O)c2)cc1` (configuration not stated) as the compound, how does the Potency read?
**A.** inconclusive [inhibitor, single point]

**Q.** How did the Potency turn out when `CC(=O)c1ccc(NC(=O)CSc2nnc3c(n2)[nH]c2ccccc23)cc1` was run?
**A.** inconclusive [inhibitor, partial curve]

**Q.** Which Potency does the source give for `O=C(CSc1ccc2nc(-c3ccccc3)cn2n1)Nc1ccccc1` here?
**A.** inconclusive [inhibitor, partial curve, poor fit]

**Q.** Which Potency does the source give for `CC1CCN(S(=O)(=O)c2ccc3nc(Nc4cccc(F)c4)ccc3c2)CC1` here?
**A.** inconclusive [inhibitor, single point]

**Q.** `Cc1ccc(-c2cnc(C3CC3)o2)cc1S(=O)(=O)Nc1ccc(F)cc1Cl` was tested. Which Potency did it give?
**A.** inconclusive [inhibitor, partial curve]

**Q.** With `CO[C@H]1/C=C/C=C/C=C/C[C@H](OC(=O)[C@@H](C)NC(=O)C2CCCCC2)[C@H](C)[C@@H](O)/C(C)=C/CCc2cc(O)cc(c2)NC(=O)C1` as the compound, how does the Potency read?
**A.** inactive

**Q.** For `O=C(O)c1ccccc1Nc1cccc(OCc2ccc3ccccc3n2)c1`, which Potency is on record?
**A.** inconclusive [inhibitor, single point]

**Q.** `Cc1ccc2oc(C(=O)NCC(c3ccc(Cl)cc3)N3CCOCC3)c(C)c2c1` (configuration not stated) was tested. Which Potency did it give?
**A.** inconclusive [inhibitor, partial curve, poor fit]

**Q.** How did the Potency turn out when `CCOc1ccccc1NC(=O)CSc1nc2cc(OC)c(OC)cc2c2nc(CCn3c(C)nc4ccccc43)nn12` was run?
**A.** inactive

**Q.** `COc1ccc(CCNc2nc(-c3ccccc3OC)cc(C(F)(F)F)n2)cc1OC` was tested. Which Potency did it give?
**A.** inconclusive [inhibitor, partial curve, poor fit]

**Q.** Which Potency does the source give for `O=C(c1ccc(Br)cc1)N1CCC(c2nc3ccccc3s2)CC1` here?
**A.** inconclusive [inhibitor, partial curve, poor fit]

**Q.** Which Potency does the source give for `CCOc1ccc(C(=O)Nc2c(C)nc(Nc3ccccc3)nc2Nc2ccccc2)cc1OCC` here?
**A.** inconclusive [inhibitor, partial curve, poor fit]
